From patent US20030103948A1 (NEORX, published 2003) come the findings set out here.

Experiment [1] concerns the target T1, CD20 (human, UniProt P11836 1-297).
T1 construct: whole, on cells; also called CD20-positive Ramos cell line; Ramos cells
T1 sequence (looked up): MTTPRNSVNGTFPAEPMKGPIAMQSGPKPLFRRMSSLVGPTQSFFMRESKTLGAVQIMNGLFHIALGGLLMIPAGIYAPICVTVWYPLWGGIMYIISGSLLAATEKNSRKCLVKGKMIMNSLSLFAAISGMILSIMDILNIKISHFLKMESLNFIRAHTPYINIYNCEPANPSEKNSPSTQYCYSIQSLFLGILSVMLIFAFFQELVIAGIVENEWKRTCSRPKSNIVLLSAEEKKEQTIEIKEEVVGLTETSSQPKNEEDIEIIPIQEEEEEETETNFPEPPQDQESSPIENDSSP
Kind of experiment: competitive flow cytometry on Ramos cells; competitor fluorescein-labeled B9E9; reference B9E9 mAb. (A flow cytometer gives signals particle by particle.)

Experiment [2] has as its target T1, CD20. Kind of experiment: saturation binding of radiolabeled fusion protein to Ramos cells (10^7 cells), nonlinear regression.

As a reminder, the Kd is the concentration at which binding is half-saturated. A higher Kd goes with a looser complex.

B1: B9E9 scFvSA (VH-VL 25-mer) (scFv)
scFv: MAQVQLVQSGAELVKPGASVKMSCKASGYTFTSYNMHWVKQTPGQGLEWIGAIYPGNGDTSYNQKFKGKATLTADKSSSTAYMQLSSLTSEDSAVYYCARAQLRPNYWYFDVWGAGTTVTVSKISGGGGSGGGGSGGGGSGGGGSGGGGSSDIVLSQSPAILSASPGEKVTMTCRASSSVSYMHWYQQKPGSSPKPWIYATSNLASGVPARFSGSGSGTSYSLTISRVEAEDAATYYCQQWISNPPTFGAGTKLELKSSGSGSA[not shown - about 150 residues]
notes: Tetramer of 4 identical subunits; monomer mass 43,401; also called B9E9 scFvSA 25-mer; B9E9 fusion protein
For the molecule B1, in the experiment with CD20 [1], the “percent immunoreactivity ([IC50 scFvSA/IC50 mAb] x 100), molar basis” value is about 185%. In the experiment with CD20 [2], the Ka was found to be 8e+07 M⁻¹ and the Kd was 12.4 nM.
